Legend:
Type in all cases: in vivo
Botrytis cinerea = assay: Test Example B: Gray mold on tomato; conditions: for Test B (control value class, gray mold on tomato): in vivo
Text: [Test Example B] Gray Mold on Tomato
Seeds of a test plant (tomato variety: Oogata Fukuju) were planted followed by cultivating until three to five first leaves (true leaves) appeared.

Alternaia brassicicola = assay: Test Example C: Alternaria sooty spot on cabbage; conditions: for Test C (control value class, Alternaria sooty spot on cabbage): in vivo
Text: [Test Example C] Alternaria Sooty Spot on Cabbage
Seeds of a test plant (cabbage variety: Shikidori) were planted followed by cultivating until the cotyledons extended.

[1] = tested on: Blumeria graminis f sp. hordei; assay: Test Example D: Powdery mildew on barley; conditions: for Test D (control value class, powdery mildew on barley): in vivo
Text: [Test Example D] Powdery Mildew on Barley
After the sprayed dilutions were dried, conidia of Blumeria graminis f sp. hordei were inoculated to the plants by shaking off.

Puccinia recondita = assay: Test Example E: Brown rust on wheat; conditions: for Test E (control value class, brown rust on wheat): in vivo
Text: [Test Example E] Brown Rust on Wheat

Plasmopara viticola = assay: Test Example G: Downy mildew on vine; conditions: for Test G (control value class): 250 ppm spray; for Test G (control value class, downy mildew on vine): 250 ppm, sprayed 2.5 ml/pot before inoculation
Text: [Test Example G] Downy Mildew on Vine
Seeds of a test plant (grape variety: Neomuscat) were planted followed by cultivating until three to four first leaves appeared. […] After the sprayed dilutions were dried, a zoosporangia suspension (1-2×10^4 zoosporangia/ml) of Plasmopara viticola was inoculated to the plants by spraying.

[2] = gray mold on tomato, Botrytis cinerea, 250 ppm spray
[3] = Alternaria sooty spot on cabbage, 250 ppm spray
[4] = powdery mildew on barley, 250 ppm spray
[5] = brown rust on wheat, Puccinia recondita, 250 ppm spray
[6] = downy mildew on vine, Plasmopara viticola, 7-10 days after inoculation
[7] = evaluated 7-10 days after inoculation
[8] = 250 ppm spray, preventive, control value class
[9] = Gray mold on tomato, control value=100{1-(n/3)}
[10] = Alternaria sooty spot on cabbage, control value=100{1-(n/3)}
[11] = Powdery mildew on barley, control value=100{1-(n/3)}
[12] = Brown rust on wheat, control value=100{1-(n/3)}
[13] = Downy mildew on vine, 2.5 ml/pot, evaluated 7-10 days after inoculation

## Cn1c(-c2c(F)cccc2F)c(-c2cccc(F)c2Cl)cc(Cl)c1=O [Compound 509]
Botrytis cinerea; [2]
  Test B (control value class): H (H shows more than 50% of control values)
Alternaia brassicicola; [3]
  Test C (control value class): H (H shows more than 50% of control values)
[1]; [4]
  Test D (control value class): H (H shows more than 50% of control values)
Puccinia recondita; [5]
  Test E (control value class): H (H shows more than 50% of control values)
Plasmopara viticola; [6]
  Test G (control value class): H (H shows more than 50% of control values)

## CCOc1cc(F)c(-c2c(-c3ccccc3F)cc(Cl)c(=O)n2C)c(F)c1 [Compound 598]
Botrytis cinerea
  Test B (control value class, gray mold on tomato): H (H shows more than 50% of control values)
Alternaia brassicicola
  Test C (control value class, Alternaria sooty spot on cabbage): H (H shows more than 50% of control values)
[1]
  Test D (control value class, powdery mildew on barley): H (H shows more than 50% of control values)
Puccinia recondita
  Test E (control value class, brown rust on wheat): H (H shows more than 50% of control values)
Plasmopara viticola; [7]
  Test G (control value class, downy mildew on vine): H (H shows more than 50% of control values)

## CCn1c(-c2c(F)cccc2F)c(-c2cc(OC)ccc2Cl)cc(F)c1=O [Compound 533]
Botrytis cinerea; [2]
  Test B (control value class): H (H shows more than 50% of control values)
Alternaia brassicicola; [3]
  Test C (control value class): H (H shows more than 50% of control values)
[1]; [4]
  Test D (control value class): H (H shows more than 50% of control values)
Puccinia recondita; [5]
  Test E (control value class): H (H shows more than 50% of control values)
Plasmopara viticola; [6]
  Test G (control value class): L (L shows 50% or less of control values)

## CCn1c(-c2c(F)cccc2F)c(-c2cc(OC)ccc2Cl)cc(S(C)(=O)=O)c1=O [Compound 387]
Botrytis cinerea; [2]
  Test B (control value class): L (L shows 50% or less of control values)
Alternaia brassicicola; [3]
  Test C (control value class): L (L shows 50% or less of control values)
[1]; [4]
  Test D (control value class): L (L shows 50% or less of control values)
Puccinia recondita; [5]
  Test E (control value class): L (L shows 50% or less of control values)
Plasmopara viticola; [6]
  Test G (control value class): L (L shows 50% or less of control values)

## Cn1c(-c2c(F)cccc2F)c(-c2cc(OCC#N)ccc2Cl)ccc1=O [Compound 236]
Botrytis cinerea; [8]
  Test B control value (gray mold on tomato): H (H shows more than 50% of control values)
Alternaia brassicicola; [8]
  Test C control value (Alternaria sooty spot on cabbage): H (H shows more than 50% of control values)
[1]; [8]
  Test D control value (powdery mildew on barley): H (H shows more than 50% of control values)
Puccinia recondita; [8]
  Test E control value (brown rust on wheat): H (H shows more than 50% of control values)
Plasmopara viticola; 250 ppm spray (2.5 ml/pot), preventive, 7-10 days after inoculation, control value class
  Test G control value (downy mildew on vine): H (H shows more than 50% of control values)

## COc1ccc(-c2cc(C)c(=O)n(C)c2-c2c(F)cccc2F)c(Cl)c1 [Compound 749]
Botrytis cinerea; [9]
  Test B (control value class): H (H shows more than 50% of control values)
Alternaia brassicicola; [10]
  Test C (control value class): H (H shows more than 50% of control values)
[1]; [11]
  Test D (control value class): L (L shows 50% or less of control values)
Puccinia recondita; [12]
  Test E (control value class): H (H shows more than 50% of control values)
Plasmopara viticola; [13]
  Test G (control value class): L (L shows 50% or less of control values)

## CCn1c(-c2c(F)cccc2Cl)c(-c2cc(OC)cc(OC)c2)ccc1=O [Compound 150]
Botrytis cinerea; Gray mold on tomato
  Test B control value: H (H shows more than 50% of control values)
Alternaia brassicicola; Alternaria sooty spot on cabbage
  Test C control value: L (L shows 50% or less of control values)
[1]; Powdery mildew on barley
  Test D control value: L (L shows 50% or less of control values)
Puccinia recondita; Brown rust on wheat
  Test E control value: H (H shows more than 50% of control values)
Plasmopara viticola; Downy mildew on vine, 250 ppm sprayed before inoculation, 7-10 days after inoculation
  Test G control value: L (L shows 50% or less of control values)

## CCn1c(-c2c(F)cc(OC)cc2F)c(-c2cc(F)cc(F)c2Br)ccc1=O [Compound 818]
Botrytis cinerea; [9]
  Test B (control value class): H (H shows more than 50% of control values)
Alternaia brassicicola; [10]
  Test C (control value class): H (H shows more than 50% of control values)
[1]; [11]
  Test D (control value class): H (H shows more than 50% of control values)
Puccinia recondita; [12]
  Test E (control value class): H (H shows more than 50% of control values)
Plasmopara viticola; [13]
  Test G (control value class): H (H shows more than 50% of control values)

## CCn1c(-c2c(F)cc(F)cc2F)c(-c2cc(OC)cc(F)c2Cl)ccc1=O [Compound 615]
Botrytis cinerea
  Test B (control value class, gray mold on tomato): H (H shows more than 50% of control values)
Alternaia brassicicola
  Test C (control value class, Alternaria sooty spot on cabbage): H (H shows more than 50% of control values)
[1]
  Test D (control value class, powdery mildew on barley): H (H shows more than 50% of control values)
Puccinia recondita
  Test E (control value class, brown rust on wheat): H (H shows more than 50% of control values)
Plasmopara viticola; [7]
  Test G (control value class, downy mildew on vine): L (L shows 50% or less of control values)

## CCn1c(-c2c(F)cccc2F)c(-c2cc(OC)ccc2Cl)cc(SC)c1=O [Compound 375]
Botrytis cinerea; [2]
  Test B (control value class): H (H shows more than 50% of control values)
Alternaia brassicicola; [3]
  Test C (control value class): H (H shows more than 50% of control values)
[1]; [4]
  Test D (control value class): L (L shows 50% or less of control values)
Puccinia recondita; [5]
  Test E (control value class): H (H shows more than 50% of control values)
Plasmopara viticola; [6]
  Test G (control value class): H (H shows more than 50% of control values)

## COc1cc(F)c(-c2c(-c3ccc(OC)cc3Cl)ccc(=O)n2C)c(F)c1 [Compound 765]
Botrytis cinerea; [9]
  Test B (control value class): H (H shows more than 50% of control values)
Alternaia brassicicola; [10]
  Test C (control value class): H (H shows more than 50% of control values)
[1]; [11]
  Test D (control value class): L (L shows 50% or less of control values)
Puccinia recondita; [12]
  Test E (control value class): H (H shows more than 50% of control values)
Plasmopara viticola; [13]
  Test G (control value class): H (H shows more than 50% of control values)

## CCn1c(-c2c(F)cc(OC)cc2F)c(-c2ccc(F)cc2Cl)cc(C)c1=O [Compound 599]
Botrytis cinerea
  Test B (control value class, gray mold on tomato): H (H shows more than 50% of control values)
Alternaia brassicicola
  Test C (control value class, Alternaria sooty spot on cabbage): H (H shows more than 50% of control values)
[1]
  Test D (control value class, powdery mildew on barley): H (H shows more than 50% of control values)
Puccinia recondita
  Test E (control value class, brown rust on wheat): H (H shows more than 50% of control values)
Plasmopara viticola; [7]
  Test G (control value class, downy mildew on vine): H (H shows more than 50% of control values)

## O=c1c(Cl)cc(-c2cc(Cl)cc(Cl)c2Cl)c(-c2c(F)cccc2F)n1CC(F)F [Compound 455]
Botrytis cinerea; [2]
  Test B (control value class): H (H shows more than 50% of control values)
Alternaia brassicicola; [3]
  Test C (control value class): H (H shows more than 50% of control values)
[1]; [4]
  Test D (control value class): H (H shows more than 50% of control values)
Puccinia recondita; [5]
  Test E (control value class): H (H shows more than 50% of control values)
Plasmopara viticola; [6]
  Test G (control value class): L (L shows 50% or less of control values)

## CCn1c(-c2c(F)cc(F)cc2F)c(-c2ccc(C)cc2Cl)cc(Cl)c1=O [Compound 628]
Botrytis cinerea
  Test B (control value class, gray mold on tomato): H (H shows more than 50% of control values)
Alternaia brassicicola
  Test C (control value class, Alternaria sooty spot on cabbage): H (H shows more than 50% of control values)
[1]
  Test D (control value class, powdery mildew on barley): H (H shows more than 50% of control values)
Puccinia recondita
  Test E (control value class, brown rust on wheat): H (H shows more than 50% of control values)
Plasmopara viticola; [7]
  Test G (control value class, downy mildew on vine): L (L shows 50% or less of control values)

## CCn1c(-c2c(F)cc(F)cc2F)c(-c2ccc(OC)cc2Cl)cc(Br)c1=O [Compound 747]
Botrytis cinerea
  Test B (control value class, gray mold on tomato): H (H shows more than 50% of control values)
Alternaia brassicicola
  Test C (control value class, Alternaria sooty spot on cabbage): H (H shows more than 50% of control values)
[1]
  Test D (control value class, powdery mildew on barley): H (H shows more than 50% of control values)
Puccinia recondita
  Test E (control value class, brown rust on wheat): H (H shows more than 50% of control values)
Plasmopara viticola; [7]
  Test G (control value class, downy mildew on vine): L (L shows 50% or less of control values)

## CCn1c(-c2c(F)cc(OC)cc2F)c(-c2ccccc2)cc(Br)c1=O [Compound 775]
Botrytis cinerea; [9]
  Test B (control value class): H (H shows more than 50% of control values)
Alternaia brassicicola; [10]
  Test C (control value class): H (H shows more than 50% of control values)
[1]; [11]
  Test D (control value class): L (L shows 50% or less of control values)
Puccinia recondita; [12]
  Test E (control value class): H (H shows more than 50% of control values)
Plasmopara viticola; [13]
  Test G (control value class): L (L shows 50% or less of control values)
